Reference: the supplement of paper PMC3334620
Whole data set: some 33,000 sequences, median “E-score (-0.5 to 0.5)” near -0.056, cut for the highest 2% near 0.38. This is one part of the list.

target: Stb4 (UniProt P50104); experiment: PBM E-score (8-mer binding enrichment) (E-score (-0.5 to 0.5)); higher = stronger / more preferred TF binding; most listed sequences are background and not binding sites; conditions: protein concentration: 200 nM; construct: GST-DNA-binding domain
In short: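 Detection of bound protein used fluorescent anti-GST, with scans normalised by masliner. The proteins were GST-tagged yeast transcription factors applied at about 100-200 nM to universal all-10-mer Agilent arrays made double-stranded by primer extension. Each ungapped eight-base word, pooled with its reverse complement, was scored with an E-score from the Universal PBM Analysis Suite.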

Sequence	PBM E-score
AGGCGGAA	0.278
GGGCGGTA	0.17
TCGCACAA	-0.258
ATACATTG	-0.0328
ATGTAGGC	0.0308
GTGCATCA	-0.158
GGCAGCTA	-0.00249
AGAGCGTC	-0.207
AGGTCAAT	-0.251
ATTCAGGC	-0.194
CCAACCCA	-0.136
ACGACCAT	-0.226
CCACGGTC	-0.169
GGCGCTAC	-0.152
AAAGGCGA	-0.0639
CGGATCGA	0.404
ACACGGTG	0.105
GGTTGAGA	0.0322
TAAAAAAA	0.0362
ACTGTACA	-0.271
CACGCCGC	-0.0572
CGCCGACA	0.227
AGCGTGTC	-0.202
ACTTCTAC	-0.0905
TATCTGGA	-0.0963

Sequence	PBM E-score
CGGTGTGC	0.0544
ACGGCTTG	-0.0119
ATTCCTAG	-0.151
CTATATAA	-0.121
CAGCCAAC	-0.178
CGGACCCA	0.209
AATATTCT	0.103
CAGAACTG	-0.153
AGCGGTAT	-0.0689
AACGTGAG	-0.12
AAGGCAGG	-0.281
GGGTTCTA	0.0192
AAAGCTTG	-0.252
AGTGAGGA	-0.324
AAAAGCCC	0.0263
CCTTACCC	-0.0592
AATACCCT	0.0669
CATACGAG	-0.155
CTTCTATA	-0.252
GCGCAGGA	-0.213
AAATTCTA	-0.109
ACGGATCA	0.325
CCGGTATA	0.214
AGCGGCGA	0.131
GCTTTGCC	-0.0276

Sequence	PBM E-score
AGTCAATA	0.0492
GCTTCCAA	-0.147
AAGGTTGT	-0.135
CCCGCACA	0.101
TTAACTAA	0.0246
TCCCCACA	-0.384
GCAAAGTA	-0.0302
AACCTGGG	-0.239
CCGGTGGC	0.175
AAGACGGT	-0.173
GCCTTCTA	-0.285
AGCCTCAA	-0.206
ACCTTATC	0.0924
AACTTCGT	-0.177
CCCACCCG	0.326
GTTTTTGA	0.0395
ACCCAATG	-0.174
ACGGCATC	0.124
ATGTACTC	-0.0791
GTTGTGCA	-0.105
TCAGCTCA	0.0343
CATCAATG	-0.0657
CTGTTCAC	-0.243
CACTGACA	-0.124
AAAGTCTG	-0.366

Sequence	PBM E-score
CTCCGGTA	0.254
ACAGGCAG	-0.204
ACACCTGA	-0.0979
AAGGAATC	-0.0415
GTTAGCGA	-0.0707
ATGCTTCC	0.255
ATTACCCG	0.416
CTCCGCTC	0.0335
ACACGGCA	0.111
CGCTCTAC	-0.135
ACTTTACA	-0.0156
TATTGGAA	-0.215
AGGCTCGG	0.432
CAGCGCAC	-0.152
ATTGCCGG	0.301
CCCGACTA	0.301
CGGATAAA	0.465
GCAGGGGC	-0.187
GTCTGATA	-0.0657
AGAAACCG	0.177
AAAGTAGA	-0.141
GATCGCTA	-0.119
GCACTGGA	-0.312
CTCAGGGA	-0.257
GCCAATCC	0.158

Sequence	PBM E-score
CTCGACGA	-0.265
CCTGCTCG	-0.0836
ATGCGGCA	0.0935
GTCTAATA	-0.287
TCGGGAAA	0.443
TATGATAA	0.0382
AAACGCAT	-0.17
ATTTGACA	-0.164
CCATCCGA	0.453
ATAATCAA	0.0376
AGAGTGCC	-0.176
GCAATTTA	0.0475
CGGCGGAG	0.259
CTAAGGGC	-0.283
GTTTCCAA	-0.1
ATGCGCAG	-0.112
ATAGGATA	-0.00309
AGTCCCTA	-0.179
GGGTCAAA	0.0949
ACGTATAG	-0.186
GACTAAAA	0.111
AACTTACC	0.229
CTAACAAC	0.0404
TAATTGGA	-0.139
AAGTTTCG	0.124

Sequence	PBM E-score
AAGTGATA	-0.179
ACCTCAAT	-0.192
CGAATATA	0.235
CGATCAGA	-0.159
AGTACTTG	-0.267
CGGGCACA	0.109
GCCGATAA	0.277
CTCCAGGA	-0.146
AACATGTT	-0.00741
CACGGAGA	0.14
TAAAATCA	0.00279
CGACCGCC	0.03
CGGGGCGC	0.216
ACGGCGGG	0.17
GGAGCAAA	0.0302
TTCAGAAA	-0.23
CAAGCCTC	-0.159
CCAAACCC	0.0715
AACAGGCC	0.13
ATGTAATG	-0.00629
CGGGCGTC	0.15
CTCGATTA	-0.0752
GAAAACTA	0.143
ATATGGCC	-0.0809
AGCTAAAT	-0.176

Sequence	PBM E-score
CGGAGAGC	0.225
GGAAACAC	0.264
ACGTGGCT	-0.135
AGAGTTGC	0.158
GCAAGGCA	-0.253
AACACACG	-0.18
CATACACC	0.178
TATGTTCA	-0.123
AGGCTGCC	0.0642
AACGTTGA	-0.0385
TGCACCAA	-0.363
CAAGGGTA	-0.0729
CGATTGTA	0.104
ATTGCCTC	-0.0917
GCTCGCCA	-0.0156
CATTTCAG	-0.13
GCCGCAGA	0.0341
ACTGGTAA	0.0321
GCTCCCAA	-0.272
AGCAGTTG	-0.046
AAACGTGA	-0.218
GTCCGCCA	-0.128
TTGCTAAA	-0.017
AATGCTTG	-0.0727
GCAGATGC	-0.292

Sequence	PBM E-score
GGCCACAC	-0.00989
TCGTTGCA	-0.185
CACAGGCG	-0.171
AAGCCAAT	-0.0856
TAACAAAA	-0.054
ACATTGTA	-0.00506
CACTCCAC	-0.154
AGACTCCT	-0.156
TCACGAAA	-0.0978
ATCTAGGC	-0.279
CGCCGGCC	0.265
ACGCTTCG	0.136
CAACCTGC	0.0732
ACTACCGC	-0.0223
ACCGCGGC	0.193
CCCTTCGG	0.401
AAGGCTCG	0.0877
TGCCTCAA	0.0783
AGACTCCC	-0.0278
CGCGATCA	-0.0099
CCTATTAC	-0.18
GCGAATGA	0.0949
ACGTTTCT	-0.158
AATCCAAC	-0.139
CTCTCCAC	-0.347

Sequence	PBM E-score
CACCTCTG	-0.221
ACGACCCT	-0.138
AGGTGGTA	-0.0275
CGACGAAC	0.156
ACTTTCTG	0.127
CGCTTATA	0.00226
CGTCTTTC	0.0162
CTGTGTCA	-0.0509
AGATGCCC	-0.0342
AAGCAAAG	-0.16
GCAGTAGA	-0.253
AGGCTCCC	-0.0221
CAGATCTC	-0.0122
ATTTAGGC	-0.128
AGCACACC	-0.0546
AACCAAAC	-0.106
ACCAAAAA	0.00726
GAGTGAAA	-0.0195
GACGTCTC	-0.215
